Assay results published in PubChem BioAssay AID504333 (National Center for Advancing Translational Sciences (NCATS), 2011).
The whole screen tested about 360,000 compounds, of which about 16,000 (4.4%) were called active. The shares of active, inactive and inconclusive entries below differ from those in the screen. Calls follow the shape of the dose curve; as a rule, active = well fitted inhibition curve with a large enough effect; inconclusive = small, poorly fitted or top-dose-only effect; inactive = no such curve, though single readings can be large or run the other way. Potencies beside an inconclusive call are fits to weak or partial responses and may not hold up.

What follows are compounds tested against Bromodomain adjacent to zinc finger domain protein 2B (Homo sapiens) (UniProt Q9UIF8) (assay: qHTS Assay for Inhibitors of BAZ2B). Conditions: AlphaScreen BAZ2B-H3K14Ac peptide displacement; series mostly up to 114 µM.
Method in brief: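 Protein-peptide AlphaScreen: BAZ2B 50 nM, b-H3K14Ac 50 nM, 1x PBS pH 7.4 + 0.01% Tween-20. Preincubation 30 min RT; cpd 30 min RT (top 110 uM); beads 20 min RT, light-protected.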
Also: nearly all actives have a fitted effect of over 60% in size.
Potency is read from the fitted curve at half-maximal effect; tags tell the direction and shape of the fitted curve.

UniProt Q9UIF8, sequence (Q9UIF8 whole entry, looked up, the tested form may be a part): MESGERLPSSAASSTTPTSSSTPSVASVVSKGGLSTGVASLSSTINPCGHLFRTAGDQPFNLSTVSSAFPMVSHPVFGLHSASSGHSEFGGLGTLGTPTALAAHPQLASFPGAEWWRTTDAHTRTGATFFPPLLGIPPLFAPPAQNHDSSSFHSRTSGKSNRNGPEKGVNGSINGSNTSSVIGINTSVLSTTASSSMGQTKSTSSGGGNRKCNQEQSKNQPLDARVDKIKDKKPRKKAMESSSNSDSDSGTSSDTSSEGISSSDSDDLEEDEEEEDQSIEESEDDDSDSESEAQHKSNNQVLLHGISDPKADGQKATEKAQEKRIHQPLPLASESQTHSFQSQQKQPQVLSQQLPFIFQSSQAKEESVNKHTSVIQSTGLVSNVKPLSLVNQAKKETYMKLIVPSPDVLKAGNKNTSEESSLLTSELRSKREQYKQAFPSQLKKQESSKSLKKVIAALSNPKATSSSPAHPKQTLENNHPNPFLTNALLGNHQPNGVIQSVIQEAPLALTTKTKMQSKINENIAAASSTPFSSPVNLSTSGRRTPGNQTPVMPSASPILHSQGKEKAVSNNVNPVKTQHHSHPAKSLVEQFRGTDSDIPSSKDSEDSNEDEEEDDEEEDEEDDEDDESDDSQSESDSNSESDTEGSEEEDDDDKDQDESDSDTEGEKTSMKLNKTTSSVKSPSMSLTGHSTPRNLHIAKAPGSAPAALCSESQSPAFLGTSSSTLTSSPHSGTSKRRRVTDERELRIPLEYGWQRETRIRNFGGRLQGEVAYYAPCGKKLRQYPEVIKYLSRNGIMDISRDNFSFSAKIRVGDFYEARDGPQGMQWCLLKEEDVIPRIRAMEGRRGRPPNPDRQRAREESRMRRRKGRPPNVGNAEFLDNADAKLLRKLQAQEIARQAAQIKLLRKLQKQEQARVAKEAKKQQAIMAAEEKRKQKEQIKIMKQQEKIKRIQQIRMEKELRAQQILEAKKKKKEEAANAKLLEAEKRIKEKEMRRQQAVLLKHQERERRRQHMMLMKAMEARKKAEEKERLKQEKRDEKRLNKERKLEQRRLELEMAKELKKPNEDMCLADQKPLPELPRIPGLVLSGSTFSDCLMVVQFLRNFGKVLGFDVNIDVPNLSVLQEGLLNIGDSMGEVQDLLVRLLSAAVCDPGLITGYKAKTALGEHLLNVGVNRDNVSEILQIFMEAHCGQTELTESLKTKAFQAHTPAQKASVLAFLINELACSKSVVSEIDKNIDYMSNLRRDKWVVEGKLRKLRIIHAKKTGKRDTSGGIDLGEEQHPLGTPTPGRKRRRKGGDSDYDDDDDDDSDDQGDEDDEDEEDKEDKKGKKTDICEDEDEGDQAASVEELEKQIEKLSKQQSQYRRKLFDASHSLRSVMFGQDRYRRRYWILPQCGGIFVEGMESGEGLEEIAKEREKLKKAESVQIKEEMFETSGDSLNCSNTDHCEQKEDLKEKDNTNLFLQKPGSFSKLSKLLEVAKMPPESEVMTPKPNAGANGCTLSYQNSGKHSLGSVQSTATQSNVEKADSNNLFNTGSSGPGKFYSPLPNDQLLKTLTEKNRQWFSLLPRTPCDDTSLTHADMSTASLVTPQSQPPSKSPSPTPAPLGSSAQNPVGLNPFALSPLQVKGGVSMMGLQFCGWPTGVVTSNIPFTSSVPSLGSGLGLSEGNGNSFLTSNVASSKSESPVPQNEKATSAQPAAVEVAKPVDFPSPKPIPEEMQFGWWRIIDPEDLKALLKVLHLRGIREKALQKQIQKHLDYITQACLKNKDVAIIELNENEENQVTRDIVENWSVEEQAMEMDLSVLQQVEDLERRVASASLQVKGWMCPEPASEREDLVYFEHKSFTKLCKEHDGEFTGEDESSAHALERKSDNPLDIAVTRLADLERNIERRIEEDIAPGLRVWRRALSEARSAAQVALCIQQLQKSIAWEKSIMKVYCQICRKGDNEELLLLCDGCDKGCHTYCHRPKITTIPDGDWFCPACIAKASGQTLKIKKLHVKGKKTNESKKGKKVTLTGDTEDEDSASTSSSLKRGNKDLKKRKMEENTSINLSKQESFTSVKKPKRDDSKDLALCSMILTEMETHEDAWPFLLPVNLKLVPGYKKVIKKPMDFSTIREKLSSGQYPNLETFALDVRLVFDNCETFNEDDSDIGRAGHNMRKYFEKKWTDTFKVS

Structure (SMILES) | Potency
C(=N\Nc1nn[nH]n1)/c1ccccc1 | inconclusive: 70.8 µM [inhibitor, single point]
CCN=c1scc(-c2ccco2)n1/N=C/c1ccc(O)cc1 | active: 50.1 µM
Cc1ccc(C)c(Cn2cnc3c(cnn3C(C)(C)C)c2=O)c1 | inconclusive: 100 µM [inhibitor, single point]
Cc1cc(C)cc(NC(=O)c2ccc(CNc3c(N4CCCC4)c(=O)c3=O)cc2)c1 | inconclusive: 89.1 µM [inhibitor, single point]
COc1ccccc1C(=O)N(c1ccc(C)cc1)S(=O)(=O)c1ccc(Cl)cc1 | inactive
CC1(C)Cc2c(c(N3CCOCC3)nc3sc(-c4ccc(C(=O)O)o4)c(N)c23)CO1 | inconclusive: 89.1 µM [inhibitor, single point]
CC(=O)c1ccc(NC(=O)CSc2nnc(Cc3cccn3C)n2-c2ccc(F)cc2)cc1 | active: 50.1 µM
Oc1cc2c(cc1C(c1ccc(Br)cc1)N1CCCC1)OCO2 (stereo not given) | active: 39.8 µM
COc1ccc(S(=O)(=O)NCCc2csc3nc(-c4ccccc4)nn23)cc1OC | inactive
O=C(Nc1cccc(-c2cn3cccnc3n2)c1)c1ccc2c(c1)OCO2 | inconclusive: 89.1 µM [inhibitor, single point]
O=S(=O)(Nc1ncnc2sc3c(c12)CCC3)c1ccc(Cl)s1 | inconclusive: 79.4 µM [inhibitor, single point]
CCN1C(=O)C(O)(c2c[nH]c3ccccc23)c2cc(Br)ccc21 (stereo not given) | inconclusive: 89.1 µM [inhibitor, single point]
Cc1cccc(Cn2c(=O)n(-c3ccccc3C)c(=O)c3c2c2cc(C)ccc2n3C)c1 | inactive
COC(=O)c1cc(-c2c(-c3cc(OC)c(OC)c(OC)c3)noc2C)cc([N+](=O)[O-])c1 | inconclusive: 70.8 µM [inhibitor, single point]
O=[N+]([O-])c1cc2c(cc1C=Nc1ccccc1)OCO2 | inconclusive: 89.1 µM [inhibitor, single point]
CCC(CO)NCC(O)COCc1ccc2c(c1)OCO2 (stereo not given) | active: 79.4 µM
CCOc1cccc(C(=O)Nc2ccc3c(c2)OCCO3)c1 | inconclusive: 89.1 µM [inhibitor, single point]
CCOc1cc(N2CCOCC2)c(OCC)cc1NC(=O)CN1CCc2ccccc2C1 | active: 20 µM
Cc1c(/C=C(\C#N)C(=O)NCc2ccccc2)cc(C#N)n1C | inactive
CCOc1ccc(NC(=O)C(c2ccccn2)N(C(=O)CCl)c2ccc(OCC)cc2)cc1 (stereo not given) | inconclusive: 89.1 µM [inhibitor, single point]
